# Assay results as given in the supplement of paper PMC8728848.
# Some of the results follow.
# B1: DC-Sign (Homo sapiens), Q9NNX6 (protein)
# chain: MSDSKEPRLQQLGLLEEEQLRGLGFRQTRGYKSLAGCLGHGPLVLQLLSFTLLAGLLVQVSKVPSSISQEQSRQDAIYQNLTQLKAAVGELSEKSKLQEIYQELTQLKAAVGELPEKSKLQEIYQELTRLKAAVGELPEKSKLQEIYQELTWLKAAVGELPEKSKMQEIYQELTRLKAAVGELPEKSKQQEIYQELTRLKAAVGELPEKSKQQEIYQELTRLKAAVGELPEKSKQQEIYQELTQLKAAVERLCHPCPWEWTFFQGNCYFMSNSQRNWHDSITACKEVGAQLVVIKSAEEQNFLQLQSSRSNRFTWMGLSDLNQEGTWQWVDGSPLLPSFKQYWNRGEPNNVGEEDCAEFSGNGWNDDKCNLAKFWICKKSAASCSRDEEQFLSPAPATPNPPPA
# How the values were obtained:
# Test in all cases: glycan array binding signal (z-score within array); higher = stronger binding
# Details in all cases: glycan notation: IUPAC condensed, linker removed
# [1] = target: Fuc(a1-2)[Gal(a1-3)]Gal(b1-4)[Fuc(a1-3)]GlcNAc(b1-3)GalNAc
# How it was run: (§1)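 Glycan array data came from 3228 arrays in the Consortium for Functional Glycomics database, and only arrays with an available protein sequence were kept. Glycan names were put into IUPAC-condensed notation, and columns mapping to the same glycan were averaged. The binding signal is a within-array Z-score, averaged across arrays of one protein sequence run at different concentrations or buffers and across linkers. A negative Z-score can be read as non-binding.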
# [2] = target: Fuc(a1-2)[Gal(a1-4)]Gal(b1-4)GlcNAc
# How it was run: as §1
# [3] = target: Fuc(a1-2)[GalNAc(a1-3)]Gal
# How it was run: as §1
# [4] = target: Fuc(a1-2)[GalNAc(a1-3)]Gal(b1-3)GalNAc(a1-3)[Fuc(a1-2)]Gal(b1-4)GlcNAc
# How it was run: as §1
# [5] = target: Fuc(a1-2)[GalNAc(a1-3)]Gal(b1-3)GalNAc(b1-3)Gal(a1-4)Gal(b1-4)Glc
# How it was run: as §1
# [6] = target: Fuc(a1-2)[GalNAc(a1-3)]Gal(b1-3)GlcNAc
# How it was run: as §1
# [7] = target: Fuc(a1-2)[GalNAc(a1-3)]Gal(b1-3)GlcNAc(b1-2)Man(a1-3)[Fuc(a1-2)[GalNAc(a1-3)]Gal(b1-3)GlcNAc(b1-2)Man(a1-6)]Man(b1-4)GlcNAc(b1-4)GlcNAc
# How it was run: as §1
# [8] = target: Fuc(a1-2)[GalNAc(a1-3)]Gal(b1-3)GlcNAc(b1-2)Man(a1-3)[Fuc(a1-2)[GalNAc(a1-3)]Gal(b1-3)GlcNAc(b1-2)Man(a1-6)]Man(b1-4)GlcNAc(b1-4)[Fuc(a1-6)]GlcNAc
# How it was run: as §1
# [9] = target: Fuc(a1-2)[GalNAc(a1-3)]Gal(b1-3)GlcNAc(b1-3)GalNAc
# How it was run: as §1
# [10] = target: Fuc(a1-2)[GalNAc(a1-3)]Gal(b1-3)GlcNAc(b1-6)GalNAc
# How it was run: as §1
# [11] = target: Fuc(a1-2)[GalNAc(a1-3)]Gal(b1-4)Glc
# How it was run: as §1
# [12] = target: Fuc(a1-2)[GalNAc(a1-3)]Gal(b1-4)GlcNAc
# How it was run: as §1
# [13] = target: Fuc(a1-2)[GalNAc(a1-3)]Gal(b1-4)GlcNAc(b1-2)Man
# How it was run: as §1
# [14] = target: Fuc(a1-2)[GalNAc(a1-3)]Gal(b1-4)GlcNAc(b1-2)Man(a1-3)[Fuc(a1-2)[GalNAc(a1-3)]Gal(b1-4)GlcNAc(b1-2)Man(a1-6)]Man(b1-4)GlcNAc(b1-4)GlcNAc
# How it was run: as §1
# [15] = target: Fuc(a1-2)[GalNAc(a1-3)]Gal(b1-4)GlcNAc(b1-2)Man(a1-3)[Fuc(a1-2)[GalNAc(a1-3)]Gal(b1-4)GlcNAc(b1-2)Man(a1-6)]Man(b1-4)GlcNAc(b1-4)[Fuc(a1-6)]GlcNAc
# How it was run: as §1
# [16] = target: Fuc(a1-2)[GalNAc(a1-3)]Gal(b1-4)GlcNAc(b1-3)Gal(b1-4)GlcNAc
# How it was run: as §1
# [17] = target: Fuc(a1-2)[GalNAc(a1-3)]Gal(b1-4)GlcNAc(b1-3)Gal(b1-4)GlcNAc(b1-3)Gal(b1-4)GlcNAc
# How it was run: as §1
# [18] = target: Fuc(a1-2)[GalNAc(a1-3)]Gal(b1-4)GlcNAc(b1-3)GalNAc
# How it was run: as §1
# [19] = target: Fuc(a1-2)[GalNAc(a1-3)]Gal(b1-4)GlcNAc(b1-3)[Fuc(a1-2)[GalNAc(a1-3)]Gal(b1-4)GlcNAc(b1-6)]GalNAc
# How it was run: as §1
# [20] = target: Fuc(a1-2)[GalNAc(a1-3)]Gal(b1-4)GlcNAc(b1-6)GalNAc
# How it was run: as §1
# [21] = target: Fuc(a1-2)[GalNAc(a1-3)]Gal(b1-4)[Fuc(a1-3)]GlcNAc
# How it was run: as §1
# [22] = target: Fuc(a1-2)[GalNAc(a1-3)]Gal(b1-4)[Fuc(a1-3)]GlcNAc(b1-3)GalNAc
# How it was run: as §1
# [23] = target: Fuc(a1-2)[GalNAc(a1-4)]Gal(b1-4)GlcNAc
# How it was run: as §1
# [24] = target: Fuc(a1-2)[GalNAc(b1-3)]Gal
# How it was run: as §1
# Fuc(a1-3)GlcNAc = target: Fuc(a1-3)GlcNAc
# How it was run: as §1
# [25] = target: Fuc(a1-3)[Gal(b1-4)]Glc6S
# How it was run: as §1
# [26] = target: Fuc(a1-3)[Gal(b1-4)]GlcNAc
# How it was run: as §1
# [27] = target: Fuc(a1-3)[Gal(b1-4)]GlcNAc(b1-2)Man
# How it was run: as §1
# [28] = target: Fuc(a1-3)[Gal(b1-4)]GlcNAc(b1-2)Man(a1-3)[Fuc(a1-3)[Gal(b1-4)]GlcNAc(b1-2)Man(a1-6)]Man(b1-4)GlcNAc(b1-4)GlcNAc
# How it was run: as §1
# [29] = target: Fuc(a1-3)[Gal(b1-4)]GlcNAc(b1-2)Man(a1-3)[Fuc(a1-3)[Gal(b1-4)]GlcNAc(b1-2)Man(a1-6)]Man(b1-4)GlcNAc(b1-4)[Fuc(a1-6)]GlcNAc
# How it was run: as §1
# [30] = target: Fuc(a1-3)[Gal(b1-4)]GlcNAc(b1-3)Gal(b1-3)[Fuc(a1-4)]GlcNAc
# How it was run: as §1
# [31] = target: Fuc(a1-3)[Gal(b1-4)]GlcNAc(b1-3)Gal(b1-4)[Fuc(a1-3)]GlcNAc
# How it was run: as §1
# [32] = target: Fuc(a1-3)[Gal(b1-4)]GlcNAc(b1-3)Gal(b1-4)[Fuc(a1-3)]GlcNAc(b1-3)Gal(b1-4)[Fuc(a1-3)]GlcNAc
# How it was run: as §1
# [33] = target: Fuc(a1-3)[Gal(b1-4)]GlcNAc(b1-3)GalNAc
# How it was run: as §1
# [34] = target: Fuc(a1-3)[Gal(b1-4)]GlcNAc(b1-6)GalNAc
# How it was run: as §1
# [35] = target: Fuc(a1-3)[Gal(b1-4)]GlcNAc(b1-6)[Gal(b1-3)GlcNAc(b1-3)]Gal(b1-4)Glc
# How it was run: as §1
# [36] = target: Fuc(a1-3)[Gal(b1-4)]GlcNAc6S
# How it was run: as §1
# [37] = target: Fuc(a1-3)[Gal3S(b1-4)]Glc
# How it was run: as §1
binder,measurement,setting,value
B1,glycan array binding signal (z-score),[1],-0.164
same,glycan array binding signal (z-score),[2],-0.059
same,glycan array binding signal (z-score),[3],-0.104
same,glycan array binding signal (z-score),[4],-0.193
same,glycan array binding signal (z-score),[5],-0.068
same,glycan array binding signal (z-score),[6],-0.122
same,glycan array binding signal (z-score),[7],-0.186
same,glycan array binding signal (z-score),[8],-0.082
same,glycan array binding signal (z-score),[9],-0.164
same,glycan array binding signal (z-score),[10],-0.18
same,glycan array binding signal (z-score),[11],-0.052
same,glycan array binding signal (z-score),[12],-0.065
same,glycan array binding signal (z-score),[13],-0.162
same,glycan array binding signal (z-score),[14],-0.161
same,glycan array binding signal (z-score),[15],-0.049
same,glycan array binding signal (z-score),[16],-0.129
same,glycan array binding signal (z-score),[17],-0.15
same,glycan array binding signal (z-score),[18],-0.15
same,glycan array binding signal (z-score),[19],-0.189
same,glycan array binding signal (z-score),[20],-0.2
same,glycan array binding signal (z-score),[21],0.795
same,glycan array binding signal (z-score),[22],0.298
same,glycan array binding signal (z-score),[23],0.118
same,glycan array binding signal (z-score),[24],-0.172
same,glycan array binding signal (z-score),Fuc(a1-3)GlcNAc,-0.093
same,glycan array binding signal (z-score),[25],-0.122
same,glycan array binding signal (z-score),[26],0.575
same,glycan array binding signal (z-score),[27],-0.16
same,glycan array binding signal (z-score),[28],1.29
same,glycan array binding signal (z-score),[29],-0.193
same,glycan array binding signal (z-score),[30],5.28
same,glycan array binding signal (z-score),[31],2.48
same,glycan array binding signal (z-score),[32],8.36
same,glycan array binding signal (z-score),[33],0.036
same,glycan array binding signal (z-score),[34],-0.133
same,glycan array binding signal (z-score),[35],0.082
same,glycan array binding signal (z-score),[36],-0.065
same,glycan array binding signal (z-score),[37],-0.13
